Assay results from PubChem BioAssay AID504339 (National Center for Advancing Translational Sciences (NCATS), 2011).
Among all 390,000 compounds or so, about 17,000 (4.4%) were called active. Inconclusive means that the source gave no clear call. Such entries were picked first, then a sample of the others. Calls follow the shape of the dose curve; as a rule, active = well fitted inhibition curve with a large enough effect; inconclusive = small, poorly fitted or top-dose-only effect; inactive = no such curve, though single readings can be large or run the other way. Potencies beside an inconclusive call are fits to weak or partial responses and may not hold up.

These compounds were tested against Lysine-specific demethylase 4A (Homo sapiens) (UniProt O75164) (assay: qHTS Assay for Inhibitors of JMJD2A-Tudor Domain). Settings: AlphaScreen JMJD2A-Tudor / H3K4me3 peptide binding; series mostly up to 114 µM.
Sequence of UniProt O75164 (O75164 whole entry, looked up, the tested form may be a part): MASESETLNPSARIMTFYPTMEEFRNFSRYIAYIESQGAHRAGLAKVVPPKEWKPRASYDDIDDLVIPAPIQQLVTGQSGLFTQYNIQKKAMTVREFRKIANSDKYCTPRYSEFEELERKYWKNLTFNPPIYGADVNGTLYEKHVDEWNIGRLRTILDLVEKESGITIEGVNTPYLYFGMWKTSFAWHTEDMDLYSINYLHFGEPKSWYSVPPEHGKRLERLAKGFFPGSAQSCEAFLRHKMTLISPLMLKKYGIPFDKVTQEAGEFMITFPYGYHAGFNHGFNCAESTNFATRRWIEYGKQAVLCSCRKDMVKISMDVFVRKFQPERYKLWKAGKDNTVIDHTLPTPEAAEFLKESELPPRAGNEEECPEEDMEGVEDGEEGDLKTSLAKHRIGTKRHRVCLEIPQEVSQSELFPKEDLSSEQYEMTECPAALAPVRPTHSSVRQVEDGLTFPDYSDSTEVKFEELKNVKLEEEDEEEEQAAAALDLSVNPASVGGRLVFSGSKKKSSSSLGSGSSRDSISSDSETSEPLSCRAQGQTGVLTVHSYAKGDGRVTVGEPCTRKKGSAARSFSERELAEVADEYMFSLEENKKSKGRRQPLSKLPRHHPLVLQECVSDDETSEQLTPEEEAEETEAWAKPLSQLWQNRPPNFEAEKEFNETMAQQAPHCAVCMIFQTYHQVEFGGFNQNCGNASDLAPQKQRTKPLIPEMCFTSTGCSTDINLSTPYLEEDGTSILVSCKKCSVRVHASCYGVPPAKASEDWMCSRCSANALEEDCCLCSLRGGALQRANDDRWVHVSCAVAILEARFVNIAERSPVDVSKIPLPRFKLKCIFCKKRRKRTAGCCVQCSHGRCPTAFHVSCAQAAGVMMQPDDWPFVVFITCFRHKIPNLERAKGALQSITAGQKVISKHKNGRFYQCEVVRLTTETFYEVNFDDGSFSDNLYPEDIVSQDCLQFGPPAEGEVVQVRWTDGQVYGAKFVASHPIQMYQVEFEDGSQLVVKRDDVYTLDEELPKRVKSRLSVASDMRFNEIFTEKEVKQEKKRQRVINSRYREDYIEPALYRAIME
Also: nearly all actives have a fitted effect of over 50% in size.
Potency is read from the fitted curve at half-maximal effect; tags tell the direction and shape of the fitted curve.

SMILES | Potency
CCC12CCCN3CCc4c(n(c5ccccc45)C(O)(C(=O)OC)C1)C32 (configuration not stated) | inactive
C=CCN(c1ccccc1)S(=O)(=O)c1cccc(C(=O)O)c1 | inactive
CN(Cc1ccccc1F)C(=O)CN1C(=O)NC2(CCc3ccccc32)C1=O (configuration not stated) | inactive
Cc1ccc(S(=O)(=O)N2CCOCC2)cc1C(=O)OCC(=O)NCCc1ccc(F)cc1 | inactive
C=CCN1C(=O)c2ccc(C(=O)N(C)CC(=O)Nc3ccccc3Br)cc2C1=O | inactive
O=c1[nH]c(=O)c2nnc(N/N=C\c3ccc(O)cc3)nc2[nH]1 | inconclusive: 17.8 µM [inhibitor, single point]
Cc1ccc(CNC(=O)c2sc3nc4n(c(=O)c3c2C)CCCC4)cc1 | inconclusive: 50.1 µM [inhibitor, partial curve]
COCCN1CN(S(=O)(=O)c2ccccc2)c2nc3ccccc3nc21 | inactive
COc1ccc(S(=O)(=O)Nc2nnc(C(C)C)s2)cc1 | inconclusive: 89.1 µM [inhibitor, single point]
O=C(c1ccc2c(c1)N(Cc1ccc(F)cc1)CCS2)N1CCN(c2ccccc2)CC1 | inconclusive: 25.1 µM [inhibitor, partial curve, poor fit]
O=C(NNc1ccc([N+](=O)[O-])cc1)C1C2CCCCC21 (configuration not stated) | inactive
COc1cc(C2C(C#N)=C(N)N(Nc3ccccc3)C3=C2C(=O)CC(C)(C)C3)ccc1OCc1cccc(F)c1 (configuration not stated) | inconclusive: 56.2 µM [inhibitor, partial curve]
COc1ccc2c(c1)CC(C(=O)NCCN1CCN(c3cccc(Cl)c3)CC1)CO2 (configuration not stated) | inconclusive: 39.8 µM [inhibitor, partial curve]
CCNC(=O)c1c(NC(=O)COc2ccc(F)cc2)sc2c1CCCC2 | inactive
O=C(CSc1nc2ccc(NC(=O)c3ccccc3C(=O)O)cc2s1)Nc1ccc(F)c([N+](=O)[O-])c1 | inconclusive: 63.1 µM [inhibitor, partial curve]
Cc1sc2nc(SCC(=O)NCc3ccco3)n(Cc3ccccc3)c(=O)c2c1C | inactive
O=C(Nc1ccc(N2CCCCC2)cc1)c1cc(S(=O)(=O)N2CCOCC2)ccc1F | inconclusive: 50.1 µM [inhibitor, partial curve, poor fit]
COc1ccc(NC(=O)CSc2c3c(nc4ccc(Cl)cc24)CCCC3)cc1Cl | inactive
COc1ccc(N2CCN(CCCNC(=O)c3ccc4nc(CCc5ccccc5)oc4c3)CC2)cc1 | active: 22.4 µM
C/C(=N\Nc1nc(C(C)(C)C)cs1)c1ccccc1 | inconclusive: 50.1 µM [inhibitor, partial curve]
O=C(CSc1nnc(-c2cccnc2)n1Cc1ccco1)NCc1ccc2c(c1)OCO2 | inactive
O=C(Oc1ccccc1Cl)c1ccc(N2CCOCC2)c([N+](=O)[O-])c1 | inconclusive: 50.1 µM [inhibitor, partial curve]
Cc1ccc(-c2cccc(CN3CCN(C(C)C)C(CCO)C3)c2)o1 (configuration not stated) | inactive
Cc1ccc(CC2SC(N)=NC2=O)cc1 (configuration not stated) | inactive
CC(C)C(=O)O/N=C(\N)c1ccccn1 | inactive
CSCCNCc1cn(-c2ccc(F)cc2F)nc1-c1ccccc1C | inconclusive: 56.2 µM [inhibitor, partial curve]

SMILES | Potency
COc1cc(/C=C2\COC/C(=C\c3ccc(O)c(OC)c3)C2=O)ccc1O | inconclusive: 44.7 µM [inhibitor, partial curve]
C=C(C)C(=O)Nc1cccc(C2=NOC3(C2)C[C@@H](C(N)=O)N(C(=O)C(=C)C)C3)c1 (some centres not stated) | active: 7.94 µM
Cc1cccc(OCc2nnc(NC(=O)c3cccs3)s2)c1 | inconclusive: 100 µM [inhibitor, single point]
O=C1CCc2ccc(OCCCCN3CCN(c4cccc(Cl)c4Cl)CC3)cc2N1 | inconclusive: 56.2 µM [inhibitor, partial curve]
CC(=O)Nc1ccc(OCc2cccc(-c3nc4ccccc4c(=O)n3Cc3ccco3)c2)cc1 | active: 56.2 µM
O=C(CSc1ccc(-c2cccnc2)nn1)c1ccc([N+](=O)[O-])cc1 | inactive
O=C(COc1ccccc1)NCC(c1cccs1)S(=O)(=O)c1ccc(Cl)cc1 (configuration not stated) | active: 17.8 µM
CC(NC(=O)c1cccs1)C(=O)NC1=NCCS1 (configuration not stated) | inconclusive: 89.1 µM [inhibitor, single point]
COc1cc2c(cc1NCc1ccccn1)oc1ccccc12 | active: 44.7 µM
Cc1ccc(C)c(S(=O)(=O)N2CCN(C(=O)c3ccc(N4CCCC4)c([N+](=O)[O-])c3)CC2)c1 | inconclusive: 11.2 µM [inhibitor, full curve]
CC(C)(C)OC(=O)NCC(=O)NNC(=O)c1cc2ccccc2[nH]1 | inconclusive: 39.8 µM [inhibitor, single point]
C=CCOc1c(Br)cc(CNc2ccc(NC(=O)C(C)C)c(OC)c2)cc1OCC | inconclusive: 44.7 µM [inhibitor, single point]
Oc1ccc(N2CCN(Cc3ccc(OCCCN4CCCCC4)cc3)CC2)cc1 | active: 50.1 µM
O=C1/C(=C/c2cccc([N+](=O)[O-])c2)Oc2cc(O)ccc21 | inactive
CCCCn1c(Cc2ccccc2)n[nH]c1=S | active: 3.98 µM
Cc1ccc(S(=O)(=O)N(C(=O)c2ccncc2)c2ccc3oc4c(c3c2)CCCC4)cc1[N+](=O)[O-] | inconclusive: 10 µM [inhibitor, full curve]
CC1(C)CC(=O)c2cc(C(=O)Nc3ccc(Br)cc3)c(=O)[nH]c2C1 | inactive
c1ccc(CCn2nnnc2C(c2cccs2)N2CCN(Cc3ccc4c(c3)OCO4)CC2)cc1 (configuration not stated) | inconclusive: 79.4 µM [inhibitor, single point]
COCCNC(=O)/C(C#N)=C/c1c(F)cccc1Cl | inactive
COc1ccc(NC2=CC(=O)CC(C)(C)C2)cc1 | inactive
CCN1CCN(C(=O)c2nn(-c3ccccc3)c(=O)c3ccccc23)CC1 | inactive
O=C(NCc1cccnc1)c1ccc(Cl)c(S(=O)(=O)N2CCCCCC2)c1 | active: 25.1 µM
Cc1ccc(-c2nc3ccccn3c2Nc2ccc3c(c2)OCCO3)s1 | inconclusive: 14.1 µM [inhibitor, single point]
COc1cccc(CNc2ccc([N+](=O)[O-])cc2Cl)c1O | inconclusive: 50.1 µM [inhibitor, partial curve]
Cc1c(N=Cc2ccc(O)c(Br)c2)cccc1[N+](=O)[O-] | inactive
Cc1cccc(NC(=S)N(CCCN2CCOCC2)Cc2cn(C)c3ccccc23)c1 | inconclusive: 63.1 µM [inhibitor, partial curve, poor fit]

SMILES | Potency
S=C(Cc1ccc(-c2ccccc2)cc1)N1CCOCC1 | inactive
O=C(CC1C(=O)NCCN1Cc1ccc(Cl)c(F)c1)NC1CCCCC1 (configuration not stated) | inconclusive: 3.98 µM [inhibitor, single point]
O=C(O)c1nn2c(C(F)(F)F)cc(-c3cccs3)nc2c1Cl | inactive
O=C(Cn1cnc2c(OCc3ccccc3)ncnc21)NCc1ccccc1 | inconclusive: 44.7 µM [inhibitor, partial curve]
O=C(C1CCC(Cn2c(=S)[nH]c3ccccc3c2=O)CC1)N1CCOCC1 (configuration not stated) | inconclusive: 17.8 µM [inhibitor, full curve]
COc1ccc(NC(=O)C2CCCN2S(=O)(=O)c2cccc3nsnc23)c(OC)c1 (configuration not stated) | inactive
OC(CN1CCN(Cc2ccccc2)CC1)Cn1c2ccccc2c2ccccc21 (configuration not stated) | inconclusive: 44.7 µM [inhibitor, single point]
c1csc(-c2nn3c(C4COc5ccccc5O4)nnc3s2)c1 (configuration not stated) | inactive
O=[S+]([O-])(c1ccc2c(c1)OCCO2)N1CCN([S+](=O)([O-])c2cc(Cl)ccc2F)CC1 | inactive
Cc1nn2c(=O)cc(COC(=O)c3cccc(NC(=O)COc4ccc(C)c(C)c4)c3)nc2s1 | inactive
COc1ccc(C2c3c(N)nc(CCc4ccccc4)nc3Oc3ccc4ccccc4c32)cc1OC (configuration not stated) | inconclusive: 56.2 µM [inhibitor, partial curve]
O=C(O)c1ccc(/C=N/NC(=O)c2ccc(CN3c4cccc5cccc(c45)S3(=O)=O)cc2)cc1 | inconclusive: 100 µM [inhibitor, single point]
Cc1ccc(CSc2[nH]c(=O)ncc2C)cc1 | inactive
COc1ccc(N2CCN(C(=O)c3ccc4nc(N5CCCCC5)sc4c3)CC2)cc1 | inactive
Cc1[nH]n(-c2ccccc2)c(=O)c1C(C[N+](=O)[O-])c1ccc(Br)cc1 (configuration not stated) | inconclusive: 56.2 µM [inhibitor, partial curve]
COc1cccc(Nc2nn3c(=O)c4ccccc4nc3s2)c1 | inconclusive: 50.1 µM [inhibitor, partial curve]
O=C(CCS(=O)(=O)c1ccccc1)Nc1nc(-c2ccccn2)cs1 | active: 89.1 µM
CN(C)C(=O)c1ccc(NC(=O)CN2C(=O)NC3(CCCc4ccccc43)C2=O)cc1 (configuration not stated) | inactive
CCOc1cc(NCc2ccccc2)c2ncn(C(C)C)c2c1 | active: 50.1 µM
Cc1[nH]cnc1CSCCN | active: 1 µM
CCOc1ccc(S(=O)(=O)N2CCC(N3CCN(Cc4ccc(F)cc4)C(=O)C3=O)CC2)cc1 | inactive
CCCCn1c(=N)n(CC(O)c2ccccc2)c2ccccc21 (configuration not stated) | inactive
Cc1cccc(C)c1NC(=S)Nc1ccccc1C(=O)NCc1ccco1 | inactive
O=C(O)CSc1c(-c2ccccc2)c2cc(Cl)ccc2[nH]c1=O | inactive
COc1ccc(-c2csc(NC(=O)C3CC(=O)N(Cc4ccccc4)C3)n2)cc1OC (configuration not stated) | inconclusive: 50.1 µM [inhibitor, partial curve]
